Data on 51 compounds can be found in paper PMC12040169 (PLOS Biology, 2025).

Some of the results follow.

In the experiment the test system is T1, C. trachomatis L2/434/Bu expressing GFP (CTL2-GFP).
T1 construct: L2/434/Bu GFP intracellular growth in HeLa cells
Further details: species or system HeLa; C. trachomatis total inclusion area by high-content imaging, normalised to DMSO. The note with it: total inclusion area; 28.5 h, 10 µM; inhibitor. The essentials: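 Host cell viability was gauged from Hoechst-stained nuclei counts, while chlamydial growth was taken from total inclusion area and inclusion number per well. Cells were fixed and imaged by high-content microscopy once bulk GFP and resorufin fluorescence had been measured.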
Regarding `Cn1c(-c2ccccc2O)n[nH]c1=S` [CBK014577], the “% of control remaining” value is 45.3291.

Regarding `Cc1ccc(NC(=O)C2CC(=O)Nc3nc4ccccc4n32)cc1` (stereo not drawn) [CBK288134], the “% of control remaining” value is 93.6929.

On to `Cc1cccc(-n2c(CCc3ccccc3)nnc2SCC(=O)c2ccccc2)c1` [CBK266369], for which the “% of control remaining” value amounted to 136.395.

Turning to `COc1ccc(-c2cc[nH]n2)c(OC)c1OC` [CBK022957C], the “% of control remaining” value is recorded as 86.4351.

For `Fc1cccc(-c2nnc(SCc3nc4ccccc4[nH]3)n2-c2ccccc2)c1` [CBK263256], the “% of control remaining” value worked out at 101.878.

`CN1CCC(N(C)C(=O)NCCOc2ccccc2)C1` (stereo not drawn) [CBK156018]: the “% of control remaining” value turned out to be 63.7776.

Turning to `CN1C(=O)CC2(C1=O)C(=O)N(CCN1CCCC1=O)c1ccc(F)cc12` (stereo not drawn) [CBK075463], the “% of control remaining” value was 98.751.

With `COc1ccc(CC(=O)N(C)CCN2CCCCC2)cc1C` [CBK282728], the “% of control remaining” value is given as 134.928.

In the case of `CN(Cc1ncc[nH]1)C(=O)c1cn(Cc2cccc(C(F)(F)F)c2)nn1` [CBK306768], the “% of control remaining” value was determined as 93.1754.

Regarding `O=C(CSc1ncnc2scc(-c3ccc(Cl)cc3)c12)Nc1nsc(-c2ccccc2)n1` [CBK266473], the “% of control remaining” value came to 116.778.

`CC1(C)Cc2nc(N3CCOCC3)ncc2C(NC(=O)C2CCCC2)C1` (stereo not drawn) [CBK307687]: the “% of control remaining” value was 57.9123.

Turning to `O=[N+]([O-])c1ccc(CSc2nnc(-c3cnccn3)n2Cc2ccco2)cc1` [CBK267585], the “% of control remaining” value stood at 95.5437.

`Cc1ccc(F)c(NS(=O)(=O)Cc2ccccc2)c1` [CBK038438]: the “% of control remaining” value turned out to be 86.9146.

Consider `Cc1cccc(C(C)(C)C)c1NC(=O)N1CCC(Cc2ccccc2)CC1` [CBK043962], for which the “% of control remaining” value is reported as 67.2649.

`Nc1ncc(-c2ccc(OC(F)(F)F)cc2)nc1-c1ccc(O)cc1` [CBK122506]: the “% of control remaining” value worked out at 92.1377.

For `COc1ccc(Cc2nc(CCNC(C)=O)n(CC(F)(F)F)n2)cc1` [CBK307287], the “% of control remaining” value amounted to 47.4439.

Turning to `CC(Oc1ccccc1)C(=O)NCCCc1ccccc1` (stereo not drawn) [CBK264060], the “% of control remaining” value stood at 99.2343.

With `C[C@@H](Nc1cncc(-c2cccc3ccccc23)n1)c1ccccc1` [CBK065646], the “% of control remaining” value amounted to 99.9636.

In the case of `O=C(Cc1ccccc1[N+](=O)[O-])NNC(=S)Nc1ccc(F)c(Cl)c1` [CBK266904], the “% of control remaining” value came out at 101.816.

In the case of `C[C@@H](Cn1nc(-c2cccs2)oc1=O)NC(=O)C1CCCC1` [CBK284337], the “% of control remaining” value was determined as 67.884.

With `CN(C)CCN(C)c1nc(-c2cc(C(F)(F)F)cc(C(F)(F)F)c2)cn2ccnc12` [CBK037971], the “% of control remaining” value turned out to be 111.868.

With `CC(=O)Nc1cccc(C(=O)N(Cc2ccccn2)CC2CCCO2)c1` (stereo not drawn) [CBK306867], the “% of control remaining” value is on record as 54.395.

With `C[C@@H](Nc1cncc(-c2ccc3c(c2)OCO3)n1)c1ccccc1` [CBK065954], the “% of control remaining” value worked out at 94.1378.

Regarding `Cc1ccc(S(=O)(=O)n2nncc2C)cc1` [CBK001921], the “% of control remaining” value amounted to 61.5481.

Take `CC(C)[C@H](CO)Nc1nccnc1-c1ccc(C(=O)N2CCOCC2)cc1` [CBK037012]: the “% of control remaining” value came out at 136.595.

`COc1ccc([C@@]23CC[C@@H](CNC(=O)c4ccc(C(F)(F)F)cc4)C[C@@H]2N(C)CC3)cc1OC` [CBK042195]: the “% of control remaining” value is 87.999.

As for `CSc1ccccc1C(=O)N1CCN(S(=O)(=O)c2sc(C(=O)O)c(C)c2C(=O)O)CC1` [CBK297149], the “% of control remaining” value was found to be 80.8841.

As for `CCOC(=O)CCCCNC(O)C(Cl)(Cl)Cl` (stereo not drawn) [CBK261003C], the “% of control remaining” value worked out at 97.1209.

Regarding `C[C@@H](Nc1cncc(-c2ccncc2)n1)c1ccccc1` [CBK066055], the “% of control remaining” value was 102.577.

For the compound `O=C(O)CCC(=O)Nc1ccc2c(c1)oc1ccccc12` [CBK261597], the “% of control remaining” value turned out to be 101.941.

Turning to `O=C(NC1CCCCC1)O[C@@H]1CO[C@H]2[C@@H]1OC[C@@H]2Nc1nccc(-c2cccs2)n1` [CBK289514], the “% of control remaining” value turned out to be 97.7794.

With `O=C(O)CCSc1nc(-c2ccccc2)c(-c2ccccc2)n1-c1ccccc1` [CBK264837], the “% of control remaining” value is 88.1581.

With `C=CCN1C(=O)CC2(C1=O)C(=O)N(C)c1ccc(OC)cc12` (stereo not drawn) [CBK075158], the “% of control remaining” value is on record as 102.354.

Take `O=C1CN(c2cccc(C(F)(F)F)c2)C(=O)N1c1ccc(Cl)cc1` [CBK122769]: the “% of control remaining” value worked out at 85.0118.

For `CN(C)CCNc1c(N)c(=O)oc2ccccc12` [CBK261472], the “% of control remaining” value came out at 101.829.

`Cc1ccc(NC(=O)CSc2nnc(C(O)c3ccccc3)n2-c2ccccc2)c(C)c1` (stereo not drawn) [CBK266072]: the “% of control remaining” value was determined as 96.72.

For `CC(=O)NCC1CCC2(CCN(c3nc(C)nc(C)c3C)CC2)O1` (stereo not drawn) [CBK307404], the “% of control remaining” value amounted to 75.8711.

With `CCNC(=O)N(C)C1CCN(c2ncnc3ccccc23)CC1` [CBK305537], the “% of control remaining” value was 92.2772.

Consider `CSc1sc(NC(=O)Nc2cccc(C(F)(F)F)c2)cc1C#N` [CBK017114], for which the “% of control remaining” value turned out to be 58.3705.

In the case of `O=C(/C=C/c1cn(-c2ccccc2)nc1-c1cc2ccccc2oc1=O)NCc1ccccc1` [CBK266530], the “% of control remaining” value is reported as 117.787.

Regarding `Cc1n[nH]c(O)c1C(c1ccc(OC(=O)c2ccccc2Cl)cc1)c1c(C)n[nH]c1O` [CBK264520], the “% of control remaining” value stood at 113.649.

Consider `Cc1cn(C2CC(O)C(CN=[N+]=[N-])O2)c(=O)[nH]c1=O` (stereo not drawn) [CBK201256], for which the “% of control remaining” value turned out to be 101.331.

In the case of `CCN(CC)CC(=O)Nc1sc2c(c1C#N)CCCC2` [CBK261646], the “% of control remaining” value is listed as 98.7671.

`CC(=O)c1c(-c2ccc(C)cc2)nc2n(CCN3CCCCC3)c3ccccc3n12` [CBK278231C]: the “% of control remaining” value worked out at 84.7549.

For the compound `O=C(Oc1cccc2cccnc12)c1cc(S(=O)(=O)N2CCOCC2)ccc1Cl` [CBK263210], the “% of control remaining” value amounted to 115.854.

For the compound `COCCNC(=O)c1cc(C2CC2)nc2c1cnn2C(C)C` [CBK306099], the “% of control remaining” value is listed as 49.5211.

Turning to `Cc1c(-c2cc(C(=O)NC(C)C3CC4CCC3C4)no2)cnn1C` (stereo not drawn) [CBK281653], the “% of control remaining” value worked out at 72.4205.

In the case of `CNCC1CCN(C(=O)c2ccc(Oc3cccnc3)cc2)C1` (stereo not drawn) [CBK304697], the “% of control remaining” value is listed as 126.401.

In the case of `CCn1cc(CN2CCC(O)(c3ccc(C)cc3)CC2)c(C)n1` [CBK282955], the “% of control remaining” value is 104.413.

For `Cc1nc2c(c(=O)[nH]1)CCN(C(=O)c1cc3c(s1)CCC3)C2` [CBK283751], the “% of control remaining” value came to 51.481.

As for `O=C(CN(c1ccccc1)S(=O)(=O)c1ccc(F)cc1)Nc1ccc(Cl)c(Cl)c1` [CBK268740], the “% of control remaining” value was 99.2254.
